# Results taken from publication PMC9911399, “Two distinct binding modes provide the RNA-binding protein RbFox with extraordinary sequence specificity”.
# Residue numbers refer to the chain shown, from its start. This is one part of the list.
# T1: RBFOX1 RRM RbFoxmut (Fox-RRM*) (Homo sapiens, UniProt Q9NWB1 109-208, R118D;E147R;N151S;E152T)
# T1 sequence: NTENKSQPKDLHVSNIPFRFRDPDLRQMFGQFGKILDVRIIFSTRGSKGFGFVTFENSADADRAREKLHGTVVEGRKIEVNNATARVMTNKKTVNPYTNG
# B1: GAGUGGC (DNA:RNA)
# RNA: GGGAGACCGGAAUUCAGAUUGUCCGAGUGGCUUAAAUCCCGUCGUAGCCACCA
# DNA 1: CAATCTGAATTCCGGTCTCCC
# DNA 2: TGGTGGCTACGACGGGATT
# B2: AGAGUCA (DNA:RNA)
# RNA: GGGAGACCGGAAUUCAGAUUGUCCAGAGUCAUUAAAUCCCGUCGUAGCCACCA
# DNA 1: CAATCTGAATTCCGGTCTCCC
# DNA 2: TGGTGGCTACGACGGGATT
# B3: ACUUUGA (DNA:RNA)
# RNA: B2 RNA with G26C, A27U, G28U, C30G
# DNA 1: CAATCTGAATTCCGGTCTCCC
# DNA 2: TGGTGGCTACGACGGGATT
# B4: AGAUGGC (DNA:RNA)
# RNA: B1 RNA with G25A, A26G, G27A
# DNA 1: CAATCTGAATTCCGGTCTCCC
# DNA 2: TGGTGGCTACGACGGGATT
# B5: UGCGACU (DNA:RNA)
# RNA: B2 RNA with A25U, A27C, U29A, A31U
# DNA 1: CAATCTGAATTCCGGTCTCCC
# DNA 2: TGGTGGCTACGACGGGATT
# B6: AGACACC (DNA:RNA)
# RNA: B2 RNA with G28C, U29A, A31C
# DNA 1: CAATCTGAATTCCGGTCTCCC
# DNA 2: TGGTGGCTACGACGGGATT
# B7: UCUCGGC (DNA:RNA)
# RNA: B1 RNA with G25U, A26C, G27U, U28C
# DNA 1: CAATCTGAATTCCGGTCTCCC
# DNA 2: TGGTGGCTACGACGGGATT
# B8: GGGUUAC (DNA:RNA)
# RNA: B1 RNA with A26G, G29U, G30A
# DNA 1: CAATCTGAATTCCGGTCTCCC
# DNA 2: TGGTGGCTACGACGGGATT
# B9: UCAGCGC (DNA:RNA)
# RNA: B2 RNA with A25U, G26C, U29C, C30G, A31C
# DNA 1: CAATCTGAATTCCGGTCTCCC
# DNA 2: TGGTGGCTACGACGGGATT
# B10: UAAACGG (DNA:RNA)
# RNA: B1 RNA with G25U, G27A, U28A, G29C, C31G
# DNA 1: CAATCTGAATTCCGGTCTCCC
# DNA 2: TGGTGGCTACGACGGGATT
# B11: CUUACUC (DNA:RNA)
# RNA: B1 RNA with G25C, A26U, G27U, U28A, G29C, G30U
# DNA 1: CAATCTGAATTCCGGTCTCCC
# DNA 2: TGGTGGCTACGACGGGATT
# B12: GAAUGAU (DNA:RNA)
# RNA: B1 RNA with G27A, G30A, C31U
# DNA 1: CAATCTGAATTCCGGTCTCCC
# DNA 2: TGGTGGCTACGACGGGATT
# B13: GCCGUGU (DNA:RNA)
# RNA: B2 RNA with A25G, G26C, A27C, C30G, A31U
# DNA 1: CAATCTGAATTCCGGTCTCCC
# DNA 2: TGGTGGCTACGACGGGATT
# B14: GAACUCC (DNA:RNA)
# RNA: B2 RNA with A25G, G26A, G28C, A31C
# DNA 1: CAATCTGAATTCCGGTCTCCC
# DNA 2: TGGTGGCTACGACGGGATT
# B15: GGCCCUG (DNA:RNA)
# RNA: B2 RNA with A25G, A27C, G28C, U29C, C30U, A31G
# DNA 1: CAATCTGAATTCCGGTCTCCC
# DNA 2: TGGTGGCTACGACGGGATT
# B16: AGUGACA (DNA:RNA)
# RNA: B2 RNA with A27U, U29A
# DNA 1: CAATCTGAATTCCGGTCTCCC
# DNA 2: TGGTGGCTACGACGGGATT
# B17: AUUGUCC (DNA:RNA)
# RNA: B2 RNA with G26U, A27U, A31C
# DNA 1: CAATCTGAATTCCGGTCTCCC
# DNA 2: TGGTGGCTACGACGGGATT
# B18: AGAGGCG (DNA:RNA)
# RNA: B2 RNA with U29G, A31G
# DNA 1: CAATCTGAATTCCGGTCTCCC
# DNA 2: TGGTGGCTACGACGGGATT
# B19: CGCUGGC (DNA:RNA)
# RNA: B1 RNA with G25C, A26G, G27C
# DNA 1: CAATCTGAATTCCGGTCTCCC
# DNA 2: TGGTGGCTACGACGGGATT
# B20: GUUGUAU (DNA:RNA)
# RNA: B2 RNA with A25G, G26U, A27U, C30A, A31U
# DNA 1: CAATCTGAATTCCGGTCTCCC
# DNA 2: TGGTGGCTACGACGGGATT
# B21: UCAAUGC (DNA:RNA)
# RNA: B2 RNA with A25U, G26C, G28A, C30G, A31C
# DNA 1: CAATCTGAATTCCGGTCTCCC
# DNA 2: TGGTGGCTACGACGGGATT
# B22: GUUGACG (DNA:RNA)
# RNA: B2 RNA with A25G, G26U, A27U, U29A, A31G
# DNA 1: CAATCTGAATTCCGGTCTCCC
# DNA 2: TGGTGGCTACGACGGGATT
# B23: CCGCCCG (DNA:RNA)
# RNA: B2 RNA with A25C, G26C, A27G, G28C, U29C, A31G
# DNA 1: CAATCTGAATTCCGGTCTCCC
# DNA 2: TGGTGGCTACGACGGGATT
# B24: UGCUGCU (DNA:RNA)
# RNA: B2 RNA with A25U, A27C, G28U, U29G, A31U
# DNA 1: CAATCTGAATTCCGGTCTCCC
# DNA 2: TGGTGGCTACGACGGGATT
# B25: CGUAAAG (DNA:RNA)
# RNA: B2 RNA with A25C, A27U, G28A, U29A, C30A, A31G
# DNA 1: CAATCTGAATTCCGGTCTCCC
# DNA 2: TGGTGGCTACGACGGGATT
# B26: ACGUUAG (DNA:RNA)
# RNA: B2 RNA with G26C, A27G, G28U, C30A, A31G
# DNA 1: CAATCTGAATTCCGGTCTCCC
# DNA 2: TGGTGGCTACGACGGGATT
# B27: UCGUCCG (DNA:RNA)
# RNA: B1 RNA with G25U, A26C, G29C, G30C, C31G
# DNA 1: CAATCTGAATTCCGGTCTCCC
# DNA 2: TGGTGGCTACGACGGGATT
# B28: CCCUCCA (DNA:RNA)
# RNA: B2 RNA with A25C, G26C, A27C, G28U, U29C
# DNA 1: CAATCTGAATTCCGGTCTCCC
# DNA 2: TGGTGGCTACGACGGGATT
# B29: UCGGCCA (DNA:RNA)
# RNA: B2 RNA with A25U, G26C, A27G, U29C
# DNA 1: CAATCTGAATTCCGGTCTCCC
# DNA 2: TGGTGGCTACGACGGGATT
# B30: GAGGUUA (DNA:RNA)
# RNA: B2 RNA with A25G, G26A, A27G, C30U
# DNA 1: CAATCTGAATTCCGGTCTCCC
# DNA 2: TGGTGGCTACGACGGGATT
# B31: ACCAGAC (DNA:RNA)
# RNA: B1 RNA with G25A, A26C, G27C, U28A, G30A
# DNA 1: CAATCTGAATTCCGGTCTCCC
# DNA 2: TGGTGGCTACGACGGGATT
# Target: T1, RBFOX1 RRM RbFoxmut (Fox-RRM*)
# Assay: EMSA; HiTS-Eq, 1 nM pool, 10 min; buffer printed only for the single-RNA assays: 10 mM Tris pH 7.5, 150 mM NaCl, 3.4 mM EDTA, 0.001% NP-40, 30 C
# Settings: tags: His6 N-terminal (pET28a); label: 5' 32P
# How it was run: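 Purified RbFox RRM (wild type or mutant) was equilibrated for 10 min in 50 µL with 1 nM of a 5′-radiolabelled pool of RNA with 7 randomized nucleotides, its flanks annealed to DNA oligonucleotides, across increasing protein concentrations. Free RNA was separated by 8% native PAGE, excised, reverse-transcribed, PCR-barcoded and sequenced on an Illumina HiSeq 2500. Relative association constants came from read-count changes of each variant against the control reaction, normalised to the cognate motif.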
row,Binder,binding signal
1,B1,0.116 KA relative to UGCAUGU
2,B2,0.106 KA relative to UGCAUGU
3,B3,0.11 KA relative to UGCAUGU
4,B4,0.135 KA relative to UGCAUGU
5,B5,0.0832 KA relative to UGCAUGU
6,B6,0.0326 KA relative to UGCAUGU
7,B7,0.094 KA relative to UGCAUGU
8,B8,0.0932 KA relative to UGCAUGU
9,B9,0.0871 KA relative to UGCAUGU
10,B10,0.0712 KA relative to UGCAUGU
11,B11,0.0513 KA relative to UGCAUGU
12,B12,0.641 KA relative to UGCAUGU
13,B13,0.128 KA relative to UGCAUGU
14,B14,0.0356 KA relative to UGCAUGU
15,B15,0.093 KA relative to UGCAUGU
16,B16,0.0712 KA relative to UGCAUGU

row,Binder,binding signal
1,B17,0.0816 KA relative to UGCAUGU
2,B18,0.144 KA relative to UGCAUGU
3,B19,0.137 KA relative to UGCAUGU
4,B20,0.196 KA relative to UGCAUGU
5,B21,0.0703 KA relative to UGCAUGU
6,B22,0.0777 KA relative to UGCAUGU
7,B23,0.096 KA relative to UGCAUGU
8,B24,0.12 KA relative to UGCAUGU
9,B25,0.112 KA relative to UGCAUGU
10,B26,0.138 KA relative to UGCAUGU
11,B27,0.0959 KA relative to UGCAUGU
12,B28,0.0629 KA relative to UGCAUGU
13,B29,0.0893 KA relative to UGCAUGU
14,B30,0.12 KA relative to UGCAUGU
15,B31,0.0637 KA relative to UGCAUGU
